# Measurements: patent publication US11542275B2, “Substituted imidazolidin-2-one derivatives as PRMT5 inhibitors” (Aurigene Discovery Technologies Limited, priority 2018, dated 2023)
# Target: PRMT5/MEP50 Complex (Homo sapiens (Human), UniProt O14744)
# Assay: PRMT5 inhibition based on TR-FRET assay
# Format: biochemical
# Details: 32 nM PRMT5:MEP50 complex, 50 nM Histone-H4 peptide, 1 μM SAM, 90 minutes at room temperature
# Excerpt: Protein arginine methyltransferase 5 (PRMT5) is a type II arginine methyltransferase that catalyze mono- and symmetric demethylation on arginine residues of histone or non-histone proteins in presence of S-adenosylmethionine (AdoMet or SAM) a cofactor responsible for donating the methyl group. PRMT5 is reported to be overexpressed in several human cancers. To identify compounds that inhibit the PRMT5 and decrease its activity, a TR-FRET based assay has been established. Time-resolved fluorescence resonance energy transfer (TR-FRET) HTS assays are homogeneous proximity assays where the interaction of two dye-labeled binding partners is detected by the energy transfer between a donor and an acceptor dye, and the subsequent light emission by the acceptor dye. PRMT5 catalyzes Histone H4 peptide which is biotin tagged to the Lysine amino acid at carboxyl end, in presence of S-adenosyl-1-methionine (SAM) to methylate the peptide. The antibody specific to mono methylated H4 peptide (H4R3) with Ig conjugate binds to the methylated peptide, indirectly binding to the Europium lanthanide. SureLight Allophycocyanin-Streptavidin binds to the biotin tag of the peptide, therefore accepting the energy transferred from the Europium lanthanide. This energy transfer between Europium to SureLight Allophycocyanin is a direct measure of the activity/inhibition of the PRMT5 enzyme.
# Assay buffer: 20 mM BICINE (pH 7.6), 25 mM NaCl, 2 mM DTT, 0.01% Tween-20 and 0.01% BSA.
# The compound dilutions were prepared as 7.5% DMSO stock solutions in assay buffer. To 2 μL (7.5×) of test compound, 5 μL of PRMT5 enzyme prepared in assay buffer (Final concentration of 32 nM in 15 μL reaction volume) was added and allowed for 30 minutes pre-incubation time in a white polystyrene 384-well plate at room temperature. […] The plates were then read on Victor-3 with Excitation at 340 nm and Emissions collected at 615 and 665 nm in TR-FRET protocol. […]
row,IC50 [µM],SMILES
1,0.04,"O=C(C1CC1)N1CCC(c2ccc(CN3CCN(C[C@H](O)CN4CCc5ccccc5C4)C3=O)cn2)CC1 [Compound 57, (R)-1-((6-(1-(cyclopropanecarbonyl)piperidin-4-yl)pyridin-3-yl)methyl)-3-(3-(3,4-dihydroisoquinolin-2(1H)-yl)-2-hydroxypropyl)imidazolidin-2-one]"
2,0.044,"COc1ccc(-c2ccc(CN3CCN(C[C@H](O)CN4CCc5ccccc5C4)C3=O)nc2)cn1 [Compound 62, (R)-1-(3-(3,4-dihydroisoquinolin-2(1H)-yl)-2-hydroxypropyl)-3-((6′-methoxy-[3,3′-bipyridin]-6-yl)methyl)imidazolidin-2-one]"
3,0.032,"N#Cc1ncc(-c2cccc(CN3CCN(C[C@H](O)CN4CCc5ccccc5C4)C3=O)n2)cn1 [Compound 55, (R)-5-(6-((3-(3-(3,4-dihydroisoquinolin-2(1H)-yl)-2-hydroxypropyl)-2-oxoimidazolidin-1-yl)methyl)pyridin-2-yl)pyrimidine-2-carbonitrile]"
